Laboratory results as given in PubChem BioAssay AID1461 (National Center for Advancing Translational Sciences (NCATS), 2008).
Screen size: about 220,000 compounds; about 2,300 (1%) were called active. Inconclusive means that the source gave no clear call. Such entries were picked first, then a sample of the others. The call rests on the fitted dose curve; in most records, active means well fitted inhibition curve with a large enough effect; inconclusive means small, poorly fitted or top-dose-only effect, or effect the other way; inactive means no such curve, though single readings can be large or run the other way. Potencies of inconclusive entries are left out as doubtful fits.

Molecular target: Neuropeptide S receptor (Homo sapiens) (UniProt Q6W5P4)
Test: qHTS Assay for Antagonists of the Neuropeptide S Receptor: cAMP Signal Transduction; further: nearly all actives have a fitted effect of over 50% in size
Settings: CHO-NPSR cells, cAMP TR-FRET, antagonist mode; activity change, negative = inhibition: at 38.3 µM (top of the series) unless noted
On the % scale 0 is the no-effect control and ±100 the full control effect; potency means the concentration at half of the fitted maximal effect; tags describe the fitted curve by direction and shape.

Sequence of UniProt Q6W5P4 (Q6W5P4 whole entry, looked up): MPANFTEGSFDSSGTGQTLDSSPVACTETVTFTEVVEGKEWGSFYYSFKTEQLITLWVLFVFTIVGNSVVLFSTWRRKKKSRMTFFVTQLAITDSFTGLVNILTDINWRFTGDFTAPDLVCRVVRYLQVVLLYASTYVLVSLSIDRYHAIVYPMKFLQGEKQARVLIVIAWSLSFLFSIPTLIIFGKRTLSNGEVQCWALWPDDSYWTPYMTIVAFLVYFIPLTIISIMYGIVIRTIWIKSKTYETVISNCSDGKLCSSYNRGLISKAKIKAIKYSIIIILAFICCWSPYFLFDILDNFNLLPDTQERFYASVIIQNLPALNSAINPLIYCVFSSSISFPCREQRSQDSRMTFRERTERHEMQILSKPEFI

Row | Compound | Potency | activity change, negative = inhibition
1 | COc1ccc(N2CC(O)=C(c3nc(-c4ccc(F)cc4)cs3)C2=N)cc1Cl | inconclusive [inhibitor, single point] | –
2 | CCOC(=O)c1c(C)[nH]c(/C(C)=N/O)c1C | – | inactive: -0.135% [at 7.67 µM]
3 | O=[N+]([O-])c1cccc(/C=N/NC2=NCCCCC2)c1 | inactive | –
4 | COc1ccc(C(=O)Nc2cc(C(C)=O)c(/C=C/N(C)C)oc2=O)cc1 | inconclusive [inhibitor, partial curve, poor fit] | –
5 | O=C(c1cc(-c2ccncc2)nc2ccccc12)N1CCN(S(=O)(=O)/C=C/c2ccccc2)CC1 | inconclusive [inhibitor, single point] | –
6 | COC(=O)c1c(NC(=O)c2nc3ccccc3s2)sc2c1CC(C)(C)NC2(C)C | inconclusive [activator, single point] | –
7 | Cc1ccc(C=C2C(=O)c3ccccc3C2=O)s1 | inconclusive [inhibitor, partial curve, poor fit] | –
8 | COc1ccc(NC(=O)N(CCc2ccccc2)Cc2cc3c(C)cc(C)cc3[nH]c2=O)cc1 | inconclusive [inhibitor, single point] | –
9 | CCN(CC)C(=O)CSc1nnc([C@@H](N)Cc2ccccc2)o1 | inactive | –
10 | O=C1C2=C(Nc3ccccc3SC2c2ccco2)c2ccccc21 (configuration not stated) | inconclusive [inhibitor, partial curve, poor fit] | –
11 | O=C1C(=C(O)c2ccccc2)C(=O)c2ccccc21 | inactive | –
12 | COc1cccc(/C=N/NC(=O)c2cc3cc([N+](=O)[O-])ccc3s2)c1O | inconclusive [inhibitor, single point] | –
13 | CCOc1ccc2[nH]c(=O)c(CN(Cc3cccs3)C(CC)c3nnnn3C(C)(C)CC)cc2c1 (configuration not stated) | inconclusive [inhibitor, partial curve] | –
14 | O=C(O)C1NCCc2ccccc21 (configuration not stated) | inconclusive [inhibitor, single point] | –
15 | O=S(=O)(Nc1nc2ccccc2nc1N1CCN(c2ccccc2)CC1)c1ccc(F)cc1 | inactive | –
16 | O=S(=O)(c1cccc(C(F)(F)F)c1)N1CCC(c2cc(-c3cccc4ccccc34)n[nH]2)CC1 | inactive | –
17 | Cc1ccc(S(=O)(=O)N2C(=O)C(C)SC2=Nc2ccccc2)cc1 (configuration not stated) | inactive | –
18 | CC(=O)c1sc(-c2ccc(F)cc2)cc1NS(=O)(=O)c1ccccc1 | inconclusive [activator, partial curve] | –
19 | O=c1c2ccccc2c(C=NCCc2ccccc2)c(O)n1Cc1ccccc1 | inconclusive [inhibitor, single point] | –
20 | Cc1cccn2c(=O)c(/C=C(\C#N)C(=O)NCc3ccco3)c(N3CCCCCC3)nc12 | inconclusive [activator, partial curve] | –
21 | CCn1c(C)cc(/C=C2/NC(=O)N(Cc3ccccc3F)C2=O)c1C | inactive | –
22 | Cc1ccc(C)c(NS(=O)(=O)c2cc(C(=O)NCCSC3CCCCC3)ccc2C)c1 | inconclusive [inhibitor, full curve, poor fit] | –
23 | CCOC(=O)CSc1nnc(-c2ccoc2C)n1-c1ccc(OCC)cc1 | inactive | –

Row | Compound | Potency | activity change, negative = inhibition
24 | Cc1ccccc1N(C(=O)c1cccs1)c1nc2ccccc2s1 | inconclusive [inhibitor, single point] | –
25 | N#C/C(C(=O)NCc1ccco1)=C1/SC=C(c2ccccc2)N1c1ccccc1 | inconclusive [inhibitor, single point] | –
26 | COc1ccc(C(=NNc2ccccc2C(=O)O)c2ccc(OC)cc2)cc1 | active: 7.94 µM | –
27 | COCc1cc(C)nc(OCC(=O)N/N=C/c2cc(C)n(-c3c(C)cccc3C)c2C)c1C#N | inconclusive [inhibitor, single point] | –
28 | Cc1ccccc1C(=O)Oc1ccc(Br)cc1C(=S)N1CCCC1 | inconclusive [inhibitor, partial curve, poor fit] | –
29 | Cc1cccc2c1N(CCCOc1ccc(C(C)(C)C)cc1)C(=O)C2=O | inactive | –
30 | CN1/C(=C/c2cc[n+](C)c3ccccc23)C=Cc2ccccc21 | inconclusive [inhibitor, single point] | –
31 | OC1(c2ccc(Cl)cc2)CN(c2ccccc2)C2=[N+]1CCS2 (configuration not stated) | active: 10 µM | –
32 | O=C(Nc1ccccc1N1CCOCC1)c1cc(-c2ccco2)nc2ccccc12 | inconclusive [inhibitor, single point] | –
33 | Cc1ccc(-n2c(Cc3noc4ccccc34)n[nH]c2=S)cc1 | inactive | –
34 | CCN(CC)c1ccc(/C=C(/C#N)c2nc3ccccc3[nH]2)c(OC(C)C)c1 | inconclusive [inhibitor, partial curve] | –
35 | Cc1ccc(-n2c(C)nc3oc4ccccc4c(=O)c3c2=O)cc1 | inactive | –
36 | CCN1C(=S)SC(=O)C1=C1C=C(C)N(CCO)C(C)=C1 | inconclusive [inhibitor, partial curve] | –
37 | CCCNC(=O)C/C(C)=N/NC(=O)COc1ccc(C)cc1Br | inactive | –
38 | NS(=O)(=O)c1ccc(NC(=O)COC(=O)c2cc3ccccc3cc2O)cc1 | inconclusive [activator, single point] | –
39 | CCOC(=O)c1ccc(NC(=O)CSc2nc(SC)ns2)cc1 | inconclusive [inhibitor, partial curve, poor fit] | –
40 | CC[n+]1c(/C=C/c2c[nH]c3ccccc23)ccc2cc(C)ccc21 | active: 12.6 µM | –
41 | COc1ccc(C)cc1NC(=O)c1ccoc1C | inactive | –
42 | CCO[C@@H]1OC(C(=O)N2CCN(Cc3ccc4c(c3)OCO4)CC2)=C[C@H](C2CCCCC2)[C@H]1CCCO | inconclusive [activator, partial curve] | –
43 | COc1cccc(C(C(=O)NC2CCCC2)N(CC2CCCO2)C(=O)Cc2cccs2)c1 (configuration not stated) | inactive | –
44 | COc1ccccc1C1CN(c2ccccc2)N=C1c1cccs1 (configuration not stated) | inconclusive [inhibitor, single point] | –
45 | Cc1nc(C)c(-c2csc(NCCc3ccccc3)n2)s1 | inconclusive [inhibitor, single point] | –
46 | COc1ccc(-n2c(SCC#N)nnc2-c2ccc(NS(=O)(=O)c3ccc(C)cc3)cc2)cc1 | inconclusive [inhibitor, partial curve] | –

Row | Compound | Potency | activity change, negative = inhibition
47 | CC1CCC(C(C)C)C(OC(=O)Cn2c(-c3ccc(Cl)cc3)[n+](C)c3ccccc32)C1 (configuration not stated) | inconclusive [inhibitor, single point] | –
48 | O=C(c1ccco1)n1nc(-c2ccc(Cl)cc2)nc1NCc1ccco1 | inconclusive [inhibitor, partial curve, poor fit] | –
49 | Cc1nc(SCC(=O)NCCc2ccccc2)c2oc3ccccc3c2n1 | inconclusive [inhibitor, single point] | –
50 | COCCCn1c(C2CCCCC2)nc2oc3cc(OC)ccc3c(=O)c2c1=O | inconclusive [inhibitor, partial curve] | –
51 | CC(C)(C)NC(=O)CSc1nc2ccccc2n1-c1ccccc1 | inconclusive [inhibitor, full curve, poor fit] | –
52 | Cc1[nH]c(=O)[nH]c(=O)c1S(=O)(=O)N1CCCC(C(=O)N2CCN(c3ccccc3Cl)CC2)C1 (configuration not stated) | inactive | –
53 | CSc1sc(-c2ccnc(SCCS(C)(=O)=O)n2)c(-c2ccccc2)c1C#N | inconclusive [activator, partial curve] | –
54 | C=CCn1c(COc2ccc3c(c2)CCCC3)nnc1SCC(=O)Nc1cccc(SC)c1 | inconclusive [inhibitor, partial curve] | –
55 | CC(C)OC(=O)CSc1nc(N)c(C#N)c(-c2ccco2)c1C#N | inconclusive [inhibitor, single point] | –
56 | CCCCn1c(-c2ccc([N+](=O)[O-])cc2)n[nH]c1=S | inconclusive [inhibitor, single point] | –
57 | CCCCC1C(=O)N(c2ccccc2)N(c2ccccc2)C1=O | inconclusive [inhibitor, full curve, poor fit] | –
58 | O=C(Nc1ccccc1C(=O)Nc1nnc(C(F)(F)F)s1)c1ccccc1Cl | inconclusive [activator, partial curve] | –
59 | Cc1cc(O)ccc1NC(=O)CCN1C(=O)c2ccc([N+](=O)[O-])cc2C1=O | inactive | –
60 | COc1ccc(-c2nnc(SCc3ccccc3F)o2)cc1 | inconclusive [inhibitor, partial curve] | –
61 | COC(=O)CCC(=O)OC1(C)C(=O)C=C2C=C(C3CC3)N(CCCCO)C=C2C1=O (configuration not stated) | inactive | –
62 | Cc1cnc(C(=O)Nc2ccccc2-c2nnn(CC(=O)NC3CCCC3)n2)cn1 | inconclusive [inhibitor, single point] | –
63 | Cc1ccc(CNc2ccc(O)cc2)cc1 | inactive | –
64 | CC(C)(C)C1=Nn2c(nnc2-c2ccccc2F)SC1 | inconclusive [inhibitor, single point] | –
65 | Cc1cccc(C)c1NC(=O)C(C)c1ccc(-c2ccccc2)c(F)c1 (configuration not stated) | inconclusive [inhibitor, partial curve, poor fit] | –
66 | Cc1c(C(=O)Nc2ccc(Cl)cc2)c2ccccn2c1CCc1ccncc1 | inconclusive [inhibitor, partial curve] | –
67 | COC(=O)C1=C(C)NC2=C(C(=O)CCC2)C1c1cn(Cc2ccc(Br)cc2)nc1-c1ccccc1 (configuration not stated) | inconclusive [inhibitor, single point] | –
